{
  "source": "patent US20100003195A1",
  "about": "(published 2010)",
  "binders": {"B1": {"name": "unconjugated Neutravidin-coated red fluorescent microspheres (other, UniProt P02701 25-152, looked up)", "chain": "ARKCSLTGKWTNDLGSNMTIGAVNSRGEFTGTYITAVTATSNEIKESPLHGTQNTINKRTQPTFGFTVNWKFSESTTVFTGQCFIDRNGKEVLKTMWLLRSSVNDIGDDWKATRVGINIFTRLRTQKE", "notes": "negative control; also called avidin beads with nothing attached"}},
  "target": "T1, KDR on KDR-transfected 293H cells (human, UniProt P35968)",
  "T1 construct": "whole, on cells; also called KDR-expressing cells; KDR-transfected cells",
  "T1 sequence (P35968 20-1356)": "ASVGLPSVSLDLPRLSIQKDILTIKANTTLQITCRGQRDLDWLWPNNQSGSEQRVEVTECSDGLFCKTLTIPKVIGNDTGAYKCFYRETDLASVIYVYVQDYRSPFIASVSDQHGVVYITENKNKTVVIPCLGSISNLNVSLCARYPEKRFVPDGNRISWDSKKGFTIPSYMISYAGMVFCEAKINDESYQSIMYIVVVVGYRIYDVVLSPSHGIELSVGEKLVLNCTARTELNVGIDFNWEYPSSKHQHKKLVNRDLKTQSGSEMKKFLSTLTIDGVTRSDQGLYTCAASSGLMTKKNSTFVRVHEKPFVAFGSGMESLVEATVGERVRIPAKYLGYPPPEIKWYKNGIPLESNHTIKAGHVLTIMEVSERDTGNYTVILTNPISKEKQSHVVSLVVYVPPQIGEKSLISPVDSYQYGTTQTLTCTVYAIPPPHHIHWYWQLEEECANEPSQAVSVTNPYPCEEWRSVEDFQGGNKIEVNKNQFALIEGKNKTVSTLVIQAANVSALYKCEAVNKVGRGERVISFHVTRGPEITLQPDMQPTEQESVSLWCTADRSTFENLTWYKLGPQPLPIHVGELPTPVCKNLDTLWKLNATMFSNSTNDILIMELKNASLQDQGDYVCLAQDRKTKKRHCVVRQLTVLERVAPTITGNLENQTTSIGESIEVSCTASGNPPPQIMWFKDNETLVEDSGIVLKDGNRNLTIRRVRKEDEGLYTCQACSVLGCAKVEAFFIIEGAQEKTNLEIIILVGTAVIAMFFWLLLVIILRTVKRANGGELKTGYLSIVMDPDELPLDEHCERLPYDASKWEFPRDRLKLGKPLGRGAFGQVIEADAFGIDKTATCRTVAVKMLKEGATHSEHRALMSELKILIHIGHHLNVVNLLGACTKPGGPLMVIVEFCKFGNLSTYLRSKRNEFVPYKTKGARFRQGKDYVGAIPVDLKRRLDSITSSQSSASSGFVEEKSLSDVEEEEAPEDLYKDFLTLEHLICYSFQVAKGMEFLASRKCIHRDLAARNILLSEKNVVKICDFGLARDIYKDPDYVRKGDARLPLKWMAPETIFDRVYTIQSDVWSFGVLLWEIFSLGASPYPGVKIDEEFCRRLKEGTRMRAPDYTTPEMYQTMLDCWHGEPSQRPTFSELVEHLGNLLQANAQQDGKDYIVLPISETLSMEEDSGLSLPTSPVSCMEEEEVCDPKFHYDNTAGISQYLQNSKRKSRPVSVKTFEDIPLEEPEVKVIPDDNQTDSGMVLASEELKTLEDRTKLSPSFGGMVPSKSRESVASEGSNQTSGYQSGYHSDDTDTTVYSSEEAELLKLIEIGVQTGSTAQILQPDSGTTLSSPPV",
  "assay": "neutravidin-coated fluorescent beads, KDR- vs mock-transfected 293H cells",
  "data": [
    {"binder": "B1", "values": [
      {"measurement": "binding result", "value": "no binding"}
    ]}
  ]
}
